Reference: US8847003B2, “Role of proteoglycans in drug dependence” (priority 2002, dated 2014)

Tested on: Normal C57BL/6J mice
Experiment: Escalation of cocaine intake, long (6 hrs) access cocaine self-administration
Conditions: ICV injection before the self-administration session during escalation phase; GM-6001 0.4 μg/mouse; differs from controls on day 7 and 8

## CNC(=O)[C@H](Cc1c[nH]c2ccccc12)NC(=O)[C@H](CC(C)C)NC(=O)OC(C)(C)C [GM(−)]
  escalation of cocaine intake (first hour of the 6 hours of self-administration): readily escalated their cocaine intake

## Ilomastat [GM6001]
  escalation of cocaine intake (first hour of the 6 hours of self-administration): prevented escalation of cocaine intake
